Assay results from a collection of fitness landscapes (doi:10.1016/j.celrep.2020.107928).
Whole data set: some 81,000 sequences, median “one-hybrid fitness for binding parS DNA” near -0.17, cut for the highest 2% near 0.51. The list shows a part of the results.

B1: Caulobacter ParB omega fusion; a variant is named by its letters at X, in order, B8GW30 (parent)
chain: MESVVVGEPGMSEGRRGLGRGLSALLGEVDAAPAQAPGEQLGGSREAPIEILQRNPDQPRRTFREEDLEDLSNSIREKGVLQPILVRPSPDTAGEYQIVAGERAWRAAQRAGLKTVPIMVRELDDLAVLEIGIIENVQRADLNVLEEALSYKVLMEKFERTQENIAQTIGKSXSHVANXMRLLXLPDEVQSYLVSGELTAXHARAIAAAADPVALAKQIIEGGLSVRETEALARKAPNLSAGKSKGGRPPRVKDTDTQALESDLSSVLGLDVSIDHRGSTGTLTITYATLEQLDDLCNRLTRGI

Variants of: B1
Experiment: one-hybrid fitness for binding parS DNA (scaled: cognate 1, non-cognate 0); higher = stronger binding
Settings: with parS DNA site
In short: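 On M9-minus-histidine containing 0.1 mM IPTG and 5 mM 3-AT, E. coli USO cells with a HIS3 reporter, site 19 bp from the promoter, grew 48 hours at 37°C to select Caulobacter ParB libraries randomised at four specificity codons. Plasmids from before and after were Illumina-sequenced, with three replicate libraries pooled and variants under 10 reads left out. Fitness is the log change in variant-to-wild-type read ratio, rescaled against cognate and non-cognate.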

Variant | one-hybrid fitness for binding parS DNA
NRGL | ≤ 0.2
GEHS | ≤ 0.2
VNMR | ≤ 0.2
PDAH | ≤ 0.2
LTAS | ≤ 0.2
VGLT | ≤ 0.2
VHLV | ≤ 0.2
MADG | ≤ 0.2
KLTT | ≤ 0.2
RCMS | 1.01
RCQP | ≤ 0.2
LGHR | ≤ 0.2
TWMK | ≤ 0.2
KLKH | ≤ 0.2
NIIR | ≤ 0.2
VVNH | ≤ 0.2
RLRQ | ≤ 0.2
PCLR | ≤ 0.2
PYNR | ≤ 0.2
EITS | ≤ 0.2
DMST | ≤ 0.2
QYCG | ≤ 0.2
GWWR | ≤ 0.2
QLHK | ≤ 0.2
QKWM | ≤ 0.2
QQMD | ≤ 0.2

Variant | one-hybrid fitness for binding parS DNA
MKRS | ≤ 0.2
AEWC | ≤ 0.2
KVTS | ≤ 0.2
MTNG | ≤ 0.2
AMEG | ≤ 0.2
KLCI | ≤ 0.2
QYPL | ≤ 0.2
WGPQ | ≤ 0.2
SKAF | ≤ 0.2
EQFG | ≤ 0.2
RCHK | ≤ 0.2
RNCF | ≤ 0.2
PVQM | ≤ 0.2
YYLP | ≤ 0.2
HLIG | ≤ 0.2
EYNC | ≤ 0.2
RMHR | ≤ 0.2
TIED | ≤ 0.2
DVYR | ≤ 0.2
RQYD | ≤ 0.2
RIRA | 0.672
HDSK | ≤ 0.2
ARTS | ≤ 0.2
VERI | ≤ 0.2
SHDS | ≤ 0.2
KRGA | ≤ 0.2

Variant | one-hybrid fitness for binding parS DNA
AKNR | ≤ 0.2
HADC | ≤ 0.2
IIRT | ≤ 0.2
SSAD | ≤ 0.2
VRAL | ≤ 0.2
VVVR | ≤ 0.2
MFCR | ≤ 0.2
AVLV | ≤ 0.2
WDCS | ≤ 0.2
TLHW | ≤ 0.2
GYKK | ≤ 0.2
IWSY | ≤ 0.2
TCGC | ≤ 0.2
PNPF | ≤ 0.2
MGDT | ≤ 0.2
FGKN | ≤ 0.2
VSNF | ≤ 0.2
WHKG | ≤ 0.2
WGST | ≤ 0.2
VTTN | ≤ 0.2
NSNC | ≤ 0.2
THMA | ≤ 0.2
TPLG | ≤ 0.2
PIVL | ≤ 0.2
YDGR | ≤ 0.2
LPCE | ≤ 0.2

Variant | one-hybrid fitness for binding parS DNA
LSHV | ≤ 0.2
QGET | ≤ 0.2
ITKC | ≤ 0.2
GYGG | ≤ 0.2
FCLR | ≤ 0.2
PFHA | ≤ 0.2
GEPN | ≤ 0.2
VNYR | ≤ 0.2
YEQD | ≤ 0.2
IYSR | ≤ 0.2
SPRN | ≤ 0.2
QPCF | ≤ 0.2
NNFI | ≤ 0.2
RKDM | 0.273
QAQN | ≤ 0.2
RMSG | 1.02
WDVM | ≤ 0.2
SHNM | ≤ 0.2
GHDR | ≤ 0.2
VFSA | ≤ 0.2
AKWF | ≤ 0.2
WHYS | ≤ 0.2
CVNF | ≤ 0.2
IHGC | ≤ 0.2
HTFR | ≤ 0.2
NGTK | ≤ 0.2

Variant | one-hybrid fitness for binding parS DNA
PQLN | ≤ 0.2
ALSE | ≤ 0.2
QYEA | ≤ 0.2
VVID | ≤ 0.2
CKDV | ≤ 0.2
DFRK | ≤ 0.2
TWLL | ≤ 0.2
TLLF | ≤ 0.2
EKSI | ≤ 0.2
RFKW | 0.241
AYRQ | ≤ 0.2
YCSH | ≤ 0.2
SWEM | ≤ 0.2
PPHF | ≤ 0.2
SLSF | ≤ 0.2
TNYR | ≤ 0.2
RVRG | 0.955
SFIS | ≤ 0.2
VPQE | ≤ 0.2
YHGS | ≤ 0.2
KCKL | ≤ 0.2
NTAQ | ≤ 0.2
ASTP | ≤ 0.2
PDNY | ≤ 0.2
RHDF | ≤ 0.2
DHSA | ≤ 0.2

Variant | one-hybrid fitness for binding parS DNA
RWKH | 0.228
IRKD | ≤ 0.2
PRSQ | ≤ 0.2
SRQT | ≤ 0.2
YDLF | ≤ 0.2
IVRA | ≤ 0.2
ITNR | ≤ 0.2
KWFS | ≤ 0.2
MTGD | ≤ 0.2
AAQM | ≤ 0.2
AHCR | ≤ 0.2
RYCQ | ≤ 0.2
QNNT | ≤ 0.2
NPHA | ≤ 0.2
EDVW | ≤ 0.2
NTHQ | ≤ 0.2
AARH | ≤ 0.2
AKNC | ≤ 0.2
MHSR | ≤ 0.2
RSEG | 0.802
AMKF | ≤ 0.2
IQSH | ≤ 0.2
AKED | ≤ 0.2
